In PMC4081100:
Only a part is listed here, and it is no random draw. For some of these results: At the low end of the ranking, values are background and their order means little. The list shows a part of the results. For some of these results: The source does not settle which construct or isoform was used.

Assays:
Assay in all cases: universal protein binding microarray (PBM)
Conditions in all cases: transcription factors of Arabidopsis thaliana; high values mean tight binding; most listed sequences are background and not binding sites; double strand, one strand shown
GST-NTL6(1-168) = GST-NTL6(1-168) (UniProt Q9SCK6)
GST-ANAC019 NAC domain = biological target: T1, GST-ANAC019 NAC domain (UniProt Q9C932)
T1 sequence: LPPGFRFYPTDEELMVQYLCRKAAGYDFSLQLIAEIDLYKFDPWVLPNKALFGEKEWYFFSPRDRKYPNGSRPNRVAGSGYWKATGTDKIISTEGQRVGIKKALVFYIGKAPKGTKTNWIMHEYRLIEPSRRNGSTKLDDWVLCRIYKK

GST-ANAC055(1-171) = biological target: T2, GST-ANAC055(1-171) (UniProt Q9LDY8)
T2 sequence: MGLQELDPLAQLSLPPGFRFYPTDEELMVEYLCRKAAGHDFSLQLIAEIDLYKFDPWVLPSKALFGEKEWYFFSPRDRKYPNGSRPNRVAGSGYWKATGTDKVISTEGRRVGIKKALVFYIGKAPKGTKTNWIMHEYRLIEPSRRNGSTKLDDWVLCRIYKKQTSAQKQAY

[1] = biological target: T3, GST-ANAC092(1-285) full length (UniProt Q9FKA0)
T3 sequence: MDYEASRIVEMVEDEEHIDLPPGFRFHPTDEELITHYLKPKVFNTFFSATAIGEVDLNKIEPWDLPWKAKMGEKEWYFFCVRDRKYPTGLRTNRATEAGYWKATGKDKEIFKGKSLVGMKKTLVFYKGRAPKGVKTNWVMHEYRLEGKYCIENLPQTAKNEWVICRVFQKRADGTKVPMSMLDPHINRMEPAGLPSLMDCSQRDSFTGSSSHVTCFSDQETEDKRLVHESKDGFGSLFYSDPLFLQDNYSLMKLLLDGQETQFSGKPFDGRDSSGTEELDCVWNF

GST-NST2(1-184) = biological target: T4, GST-NST2(1-184) (UniProt Q9M274)
T4 sequence: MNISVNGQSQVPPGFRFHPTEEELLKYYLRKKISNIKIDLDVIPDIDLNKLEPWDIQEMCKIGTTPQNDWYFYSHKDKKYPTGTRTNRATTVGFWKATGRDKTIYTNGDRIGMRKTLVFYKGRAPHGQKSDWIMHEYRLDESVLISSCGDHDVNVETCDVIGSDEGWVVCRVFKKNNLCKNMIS

GST-NTL8 NAC domain = biological target: T5, GST-NTL8 NAC domain (UniProt Q9XIN7)
T5 sequence: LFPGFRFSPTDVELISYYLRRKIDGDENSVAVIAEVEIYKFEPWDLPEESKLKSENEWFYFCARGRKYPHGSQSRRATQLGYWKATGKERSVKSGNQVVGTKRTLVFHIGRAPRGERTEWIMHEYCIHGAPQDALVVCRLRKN

GST-VND7 NAC domain = biological target: T6, GST-VND7 NAC domain (UniProt Q9C8W9)
T6 sequence: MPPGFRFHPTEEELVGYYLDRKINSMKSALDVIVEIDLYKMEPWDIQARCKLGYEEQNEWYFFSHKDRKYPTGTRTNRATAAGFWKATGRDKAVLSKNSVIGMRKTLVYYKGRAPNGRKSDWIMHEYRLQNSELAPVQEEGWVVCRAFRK

[2] = biological target: T7, GST-VOZ2 (Arabidopsis thaliana) (UniProt Q9SLB9)
T7 sequence: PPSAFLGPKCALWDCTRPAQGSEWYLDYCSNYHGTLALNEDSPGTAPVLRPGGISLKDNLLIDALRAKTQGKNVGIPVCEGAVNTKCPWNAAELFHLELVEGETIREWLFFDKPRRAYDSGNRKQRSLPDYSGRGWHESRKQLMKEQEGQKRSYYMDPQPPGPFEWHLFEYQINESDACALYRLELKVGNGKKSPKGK

GST-WRKY1(266-371) = GST-WRKY1(266-371) (UniProt Q9SI37)
GST-NAP(1-166) = biological target: T8, GST-NAP(1-166) (UniProt O49255)
T8 sequence: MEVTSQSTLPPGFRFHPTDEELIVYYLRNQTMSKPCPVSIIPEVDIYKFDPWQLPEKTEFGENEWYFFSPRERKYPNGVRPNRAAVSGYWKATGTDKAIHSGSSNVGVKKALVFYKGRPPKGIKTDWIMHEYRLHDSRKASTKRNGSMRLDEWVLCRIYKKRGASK

GST-ATAF1 NAC domain = biological target: T9, GST-ATAF1 NAC domain (UniProt Q39013)
T9 sequence: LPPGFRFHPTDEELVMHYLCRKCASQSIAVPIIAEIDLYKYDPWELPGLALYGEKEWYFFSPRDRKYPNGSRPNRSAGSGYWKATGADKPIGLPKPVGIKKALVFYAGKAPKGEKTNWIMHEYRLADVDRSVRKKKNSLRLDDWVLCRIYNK

GST-ANAC092(1-176) = biological target: T10, GST-ANAC092(1-176) (UniProt Q9FKA0)
T10 sequence: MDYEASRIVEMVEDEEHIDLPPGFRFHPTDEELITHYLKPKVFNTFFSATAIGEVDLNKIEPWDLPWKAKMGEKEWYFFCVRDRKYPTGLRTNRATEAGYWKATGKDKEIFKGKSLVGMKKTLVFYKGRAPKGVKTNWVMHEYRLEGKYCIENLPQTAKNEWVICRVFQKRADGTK

UniProt Q9SI37, sequence (Q9SI37 266-371): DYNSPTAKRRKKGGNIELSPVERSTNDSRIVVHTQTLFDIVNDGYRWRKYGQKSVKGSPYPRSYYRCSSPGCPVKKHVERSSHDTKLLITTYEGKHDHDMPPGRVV

Sequence	binding signal (GST-NTL6(1-168))	binding signal (GST-ANAC019 NAC domain)	binding signal (GST-ANAC055(1-171))	binding signal [1]	binding signal (GST-NST2(1-184))	binding signal (GST-NTL8 NAC domain)	binding signal (GST-VND7 NAC domain)	binding signal [2]	binding signal (GST-WRKY1(266-371))	binding signal (GST-NAP(1-166))	binding signal (GST-ATAF1 NAC domain)	binding signal (GST-ANAC092(1-176))
GTGGCGTA	0.006 E-score	0.148 E-score	0.144 E-score	0.459 E-score	0.3 E-score	-0.0333 E-score	0.0712 E-score	0.0791 E-score	-0.0871 E-score	–	–	–
CCACGCAA	0.116 E-score	–	–	–	–	0.0836 E-score	0.337 E-score	0.177 E-score	0.032 E-score	0.305 E-score	–	–
TGCGTGAA	-0.0667 E-score	–	–	–	–	-0.00954 E-score	0.263 E-score	0.175 E-score	-0.0414 E-score	–	0.234 E-score	–
ACGTTTTC	0.196 E-score	–	–	–	–	0.225 E-score	0.327 E-score	0.0558 E-score	-0.0731 E-score	0.29 E-score	–	–
GTACGCCA	-0.0218 E-score	–	–	–	–	-0.0304 E-score	0.114 E-score	0.138 E-score	-0.0721 E-score	0.0526 E-score	–	–
CACGGCAC	-0.0942 E-score	0.484 E-score	–	0.474 E-score	–	0.0373 E-score	0.485 E-score	-0.0214 E-score	-0.0768 E-score	–	–	–
CGTGGTCA	-0.0886 E-score	–	0.0851 E-score	–	-0.0758 E-score	0.00556 E-score	0.128 E-score	-0.0408 E-score	–	-0.0571 E-score	–	–
CACACGTC	-0.0564 E-score	–	–	–	–	-0.134 E-score	0.176 E-score	0.0908 E-score	-0.0583 E-score	–	–	–
AGTTTGAC	–	–	–	0.0246 E-score	0.00848 E-score	-0.0359 E-score	0.095 E-score	0.0273 E-score	–	-0.106 E-score	–	-0.0156 E-score
ATAAGGAA	–	-0.0129 E-score	–	–	–	0.332 E-score	0.0381 E-score	-0.0827 E-score	0.00406 E-score	0.0352 E-score	–	–
GTTACGTA	–	–	–	0.456 E-score	0.337 E-score	0.319 E-score	0.477 E-score	-0.0733 E-score	-0.00308 E-score	0.483 E-score	–	–
CAAAAGTC	0.0864 E-score	-0.0124 E-score	–	–	–	-0.042 E-score	0.0349 E-score	0.13 E-score	–	-0.0405 E-score	–	–
CAGTCAAC	-0.0395 E-score	-0.00831 E-score	-0.00077 E-score	-0.0544 E-score	0.00533 E-score	-0.00947 E-score	-0.0423 E-score	-0.0285 E-score	–	-0.0614 E-score	–	0.0753 E-score
ATACGAAA	–	0.166 E-score	0.202 E-score	–	0.271 E-score	0.0268 E-score	0.205 E-score	0.103 E-score	-0.0553 E-score	0.251 E-score	–	–
CACACGCA	–	–	–	0.47 E-score	–	–	0.353 E-score	0.0898 E-score	0.0271 E-score	0.375 E-score	–	–
AAGGTAAG	–	–	0.0499 E-score	–	0.144 E-score	–	-0.032 E-score	0.0408 E-score	-0.0535 E-score	-0.189 E-score	–	–
ACGTTTCC	–	–	0.343 E-score	–	–	–	0.359 E-score	0.0489 E-score	-0.0571 E-score	–	–	–

Sequence	binding signal (GST-NTL6(1-168))	binding signal (GST-ANAC019 NAC domain)	binding signal (GST-ANAC055(1-171))	binding signal [1]	binding signal (GST-NST2(1-184))	binding signal (GST-NTL8 NAC domain)	binding signal (GST-VND7 NAC domain)	binding signal [2]	binding signal (GST-WRKY1(266-371))	binding signal (GST-NAP(1-166))	binding signal (GST-ATAF1 NAC domain)	binding signal (GST-ANAC092(1-176))
AAGTTACC	–	0.155 E-score	–	–	–	–	0.0773 E-score	0.0396 E-score	-0.206 E-score	–	–	–
AGTCAAAC	–	–	0.103 E-score	0.0473 E-score	–	–	-0.026 E-score	0.0304 E-score	–	0.0582 E-score	0.109 E-score	0.00993 E-score
TACGCAAA	–	–	–	0.469 E-score	0.393 E-score	0.0978 E-score	0.334 E-score	0.191 E-score	-0.0292 E-score	–	0.323 E-score	–
ATAACGTG	-0.0148 E-score	–	–	–	–	-0.0496 E-score	0.109 E-score	-0.0286 E-score	-0.117 E-score	–	–	–
AAAAGTCA	–	0.185 E-score	–	–	0.274 E-score	0.128 E-score	0.122 E-score	0.0755 E-score	–	0.08 E-score	–	0.142 E-score
GTCAAAAC	0.0209 E-score	-0.00644 E-score	0.0315 E-score	–	-0.0124 E-score	–	-0.0265 E-score	0.146 E-score	–	–	0.178 E-score	0.0114 E-score
ACGTAAAG	–	–	–	–	–	–	0.283 E-score	0.143 E-score	–	0.255 E-score	–	0.402 E-score
CTTACCCC	0.322 E-score	–	–	–	–	–	0.149 E-score	0.198 E-score	–	–	–	0.192 E-score
TTGACCAA	-0.0152 E-score	0.063 E-score	–	0.226 E-score	-0.0128 E-score	0.0477 E-score	0.0251 E-score	0.0941 E-score	–	0.0358 E-score	0.066 E-score	–
TAGCGTGA	0.0555 E-score	0.209 E-score	–	0.454 E-score	–	0.0288 E-score	0.191 E-score	0.115 E-score	–	0.0225 E-score	–	0.441 E-score
ACGTAAAA	0.161 E-score	–	–	–	–	0.0957 E-score	0.344 E-score	0.178 E-score	–	0.326 E-score	–	–
GTGCCGTA	0.0263 E-score	–	–	–	0.263 E-score	0.102 E-score	0.453 E-score	-0.0217 E-score	-0.13 E-score	–	–	–
AGACACGC	-0.0492 E-score	0.0909 E-score	–	–	–	–	0.165 E-score	0.0775 E-score	–	–	0.165 E-score	0.364 E-score
CGAAGTAA	–	0.128 E-score	0.143 E-score	–	0.223 E-score	–	0.19 E-score	0.0794 E-score	-0.0222 E-score	0.00983 E-score	–	–
GAAGCAAC	–	0.0196 E-score	–	–	–	0.416 E-score	0.228 E-score	0.134 E-score	-0.00937 E-score	0.00616 E-score	–	–
AGCGTAAG	–	-0.00696 E-score	–	–	0.172 E-score	0.0559 E-score	0.141 E-score	0.136 E-score	0.026 E-score	-0.00509 E-score	–	–
